The target in this experiment is T1, hCRTH2 (Homo sapiens, UniProt Q9Y5Y4).
T1 sequence (Q9Y5Y4 1-395): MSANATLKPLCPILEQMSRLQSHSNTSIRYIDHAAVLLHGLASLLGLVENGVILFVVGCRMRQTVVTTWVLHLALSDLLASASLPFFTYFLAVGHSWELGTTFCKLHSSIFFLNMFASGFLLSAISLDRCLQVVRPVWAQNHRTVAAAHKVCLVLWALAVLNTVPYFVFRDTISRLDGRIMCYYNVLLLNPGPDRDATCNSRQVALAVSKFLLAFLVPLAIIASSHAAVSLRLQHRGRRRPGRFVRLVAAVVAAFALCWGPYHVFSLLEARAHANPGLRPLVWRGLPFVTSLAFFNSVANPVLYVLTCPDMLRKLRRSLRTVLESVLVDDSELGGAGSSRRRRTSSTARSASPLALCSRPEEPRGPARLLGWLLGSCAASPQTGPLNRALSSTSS
As to the kind of experiment: biochemical. The note with it: Ki (nM), Table A; Radioligand Binding Assay A, [3H]PGD2, HEK-hCRTH2 membranes.
The Ki is a measure of affinity in units of concentration, obtained from inhibition or displacement. A high value points to lower affinity. In the case of `O=C(O)CCC(=O)N(C1CC1)[C@@H]1c2cc(-c3ccc(F)cc3)ccc2N(C(=O)c2ccc(OC(F)(F)F)cc2)[C@@H]2CCC[C@@H]21` (single isomer, unassigned) [compound 153, 4-(cyclopropyl((cis, cis)-7-(4-fluorophenyl)-4-(4-(trifluoromethoxy)benzoyl)-2,3,3a,4,9,9a-hexahydro-1H-cyclopenta[b]quinolin-9-yl)amino)-4-oxobutanoic acid], the Ki is 20.1 to 200 nM.

In turn, `O=C(O)CCC(=O)N(C1CC1)C1c2ccc(F)cc2N(C(=O)OCc2nc3ccccc3s2)C2CCCC21` (single isomer, unassigned) [compound 154, 4-(((cis, cis)-4-((benzo[d]thiazol-2-ylmethoxy)carbonyl)-6-fluoro-2,3,3a,4,9,9a-hexahydro-1H-cyclopenta[b]quinolin-9-yl)(cyclopropyl)amino)-4-oxobutanoic acid] had a Ki of 5.1 to 20 nM.

`CC(O)c1ccc2c(c1)C(N(C(=O)CCC(=O)O)C1CC1)C1CCC1N2C(=O)OCc1ccccc1` (single isomer, unassigned) [compound 155, 4-((cis, cis-3-((benzyloxy)carbonyl)-6-(1-hydroxyethyl)-1,2,2a,3,8,8a-hexahydrocyclobuta[b]quinolin-8-yl)(cyclopropyl)amino)-4-oxobutanoic acid]: the Ki is 201 to 7500 nM.

Regarding `O=C(O)CCC(=O)N(C1CC1)C1c2cc(C(F)F)ccc2N(C(=O)OCc2ccccc2)C2CCC21` (single isomer, unassigned) [compound 156, 4-((cis, cis-3-((benzyloxy)carbonyl)-6-(difluoromethyl)-1,2,2a,3,8,8a-hexahydrocyclobuta[b]quinolin-8-yl)(cyclopropyl)amino)-4-oxobutanoic acid], the Ki fell in the range of 20.1 to 200 nM.

Turning to `O=C(O)CCC(=O)N(C1CC1)C1c2ccccc2N(C(=O)c2ccc(SC(F)(F)F)cc2)C2CCC21` (single isomer, unassigned) [compound 159, 4-(cyclopropyl(cis, cis-3-(4-((trifluoromethyl)thio)benzoyl)-1,2,2a,3,8,8a-hexahydrocyclobuta[b]quinolin-8-yl)amino)-4-oxobutanoic acid], the Ki is 1 to 5 nM.

Take `CC12CCCC1N(C(=O)OCc1ccccc1)c1ccccc1C2N(C(=O)CCC(=O)O)C1CC1` (single isomer, unassigned) [compound 160, 4-((cis, cis-4-((benzyloxy)carbonyl)-9a-methyl-2,3,3a,4,9,9a-hexahydro-1H-cyclopenta[b]quinolin-9-yl)(cyclopropyl)amino)-4-oxobutanoic acid]: the Ki was 201 to 7500 nM.

`CC12CCCC1N(C(=O)OCc1ccccc1)c1ccccc1C2N(CCCC(=O)O)C1CC1` (single isomer, unassigned) [compound 161, 4-((cis, cis-4-((benzyloxy)carbonyl)-9a-methyl-2,3,3a,4,9,9a-hexahydro-1H-cyclopenta[b]quinolin-9-yl)(cyclopropyl)amino) butanoic acid] showed a Ki of 20.1 to 200 nM.

The molecule `O=C(O)CCC(=O)N(C1CC1)C1c2ccccc2N(C(=O)c2ccc(C3CC3)cc2)C2CCCC21` (single isomer, unassigned) [compound 162, 4-(cyclopropyl(cis, cis-4-(4-cyclopropylbenzoyl)-2,3,3a,4,9,9a-hexahydro-1H-eyclopenta[b]quinolin-9-yl)amino)-4-oxobutanoic acid] yielded a Ki of 5.1 to 20 nM.

`O=C(O)CCC(=O)N(C1CC1)C1c2ccccc2N(C(=O)c2ccc(C(F)(F)F)nc2)C2CCCC21` (single isomer, unassigned) [compound 163, 4-(cyclopropyl(cis, cis-4-(6-(trifluoromethyl)nicotinoyl)-2,3,3a,4,9,9a-hexahydro-1H-cyclopenta[b]quinolin-9-yl)amino)-4-oxobutanoic acid] showed a Ki of 20.1 to 200 nM.

In turn, `CCN(C(=O)CCC(=O)O)C1c2cc(F)ccc2N(C(=O)c2ccc(SC(F)(F)F)cc2)C2CCC12` (single isomer, unassigned) [compound 164, 4-(ethyl(cis, cis-6-fluoro-3-(4-((trifluoromethyl)thio)benzoyl)-1,2,2a,3,8,8a-hexahydrocyclobuta[b]quinolin-8-yl)amino)-4-oxobutanoic acid] had a Ki of 5.1 to 20 nM.

As to `CCN(C(=O)CCC(=O)O)[C@H]1c2cc(F)ccc2N(C(=O)c2ccc(SC(F)(F)F)cc2)[C@H]2CCC[C@@H]12` (single isomer, unassigned) [compound 165], the Ki is 1 to 5 nM.

For the molecule `O=C(O)CCC(=O)N(C1CC1)[C@H]1c2cc(F)ccc2N(C(=O)c2ccc(SC(F)(F)F)cc2)[C@H]2CCC[C@H]21` (single isomer, unassigned) [compound 166], the Ki lay in the range of 5.1 to 20 nM.

`O=C(O)CCC(=O)N(C1CC1)C1c2cc(F)ccc2N(C(=O)c2ccc(SC(F)(F)F)cc2)C2CCC21` (single isomer, unassigned) [compound 167, 4-(cyclopropyl(cis, cis-6-fluoro-3-(4-((trifluoromethyl)thio)benzoyl)-1,2,2a,3,8,8a-hexahydrocyclobuta[b]quinolin-8-yl)amino)-4-oxobutanoic acid] displayed a Ki of 5.1 to 20 nM.

For `O=C(O)CCC(=O)N(C1CC1)C1c2cc(C3CC3)ccc2N(C(=O)c2ccc(OC(F)(F)F)cc2)C2CCCC21` (single isomer, unassigned) [compound 168, 4-(cyclopropyl(cis, cis-7-cyclopropyl-4-(4-(trifluoromethoxy)benzoyl)-2,3,3a,4,9,9a-hexahydro-1H-cyclopenta[b]quinolin-9-yl)amino)-4-oxobutanoic acid], the Ki fell in the range of 20.1 to 200 nM.

As to `O=C(O)CCC(=O)N(C1CC1)C1c2cc(-c3cncnc3)ccc2N(C(=O)c2ccc(OC(F)(F)F)cc2)C2CCCC21` (single isomer, unassigned) [compound 169, 4-(cyclopropyl(cis, cis-7-(pyrimidin-5-yl)-4-(4-(trifluoromethoxy)benzoyl)-2,3,3a,4,9,9a-hexahydro-1H-cyclopenta[b]quinolin-9-yl)amino)-4-oxobutanoic acid], the Ki was in the range of 201 to 7500 nM.

`O=C(O)CCCN(C1CC1)[C@H]1c2cc(F)ccc2N(C(=O)c2ccc(OC(F)(F)F)cc2)[C@H]2CCC[C@H]21` (single isomer, unassigned) [compound 170]: the Ki lay in the range of 1 to 5 nM.

`O=C(O)CCC(=O)N(C1CC1)C1c2ccc(Cl)cc2N(C(=O)C2CCCc3ccccc32)C2CCCC21` (stereo not drawn) [17DJ, 4-[[cis,cis-6-chloro-2,3,3a,4,9,9a-hexahydro-4-[(1,2,3,4-tetrahydro-1-naphthalenyl)carbonyl]-1H-cyclopenta[b]quinolin-9-yl]cyclopropylamino]-4-oxobutanoic acid] gave a Ki of 5.1 to 20 nM.

The molecule `O=C(O)CCC(=O)N(C1CC1)C1c2ccc(Cl)cc2N(C(=O)C2CCc3ccccc3C2)C2CCCC21` (stereo not drawn) [17DL, 4-[[cis,cis-6-chloro-2,3,3a,4,9,9a-hexahydro-4-[(1,2,3,4-tetrahydro-2-naphthalenyl)carbonyl]-1H-cyclopenta[b]quinolin-9-yl]cyclopropylamino]-4-oxobutanoic acid] had a Ki of 1 to 5 nM.

`C[C@H](OC(=O)N1c2cc(Cl)c(F)cc2C(N(C(=O)CCC(=O)O)C2CC2)C2CCCC21)c1ccc(F)cc1` (stereo partly drawn) [22i, 4-[1(S)-(4-fluorophenyl)ethyl] cis, cis-[(3-carboxy-1-oxopropyl)cyclopropylamino]-6-chloro-7-fluoro-1,2,3,3a,9,9a-hexahydro-4H-cyclopenta[b]quinoline-4-carboxylate] returned an inhibition constant Ki of 1 to 5 nM.

Consider `C[C@@H](OC(=O)N(C1CC1)C1c2ccccc2N(C(=O)OCc2ccccc2)C2CCCC21)C(=O)O` (stereo partly drawn) [32C, 4-(phenylmethyl) cis, cis-[[(1R)-carboxyethoxy)carbonyl] cyclopropylamino]-1,2,3,3a-9,9a-hexahydro-4H-cyclopenta[b]quinoline-4-carboxylate], for which the Ki lay within 20.1 to 200 nM.

Molecule `CS(=O)(=O)NC(=O)CCC(=O)N(C1CC1)[C@H]1c2cc(F)ccc2N(C(=O)c2ccc(OC(F)(F)F)cc2)[C@H]2CCC[C@H]21` [compound 11, N1-cyclopropyl-N1-((3aS,9R,9aR)-7-fluoro-4-(4-(trifluoromethoxy)benzoyl)-2,3,3a,4,9,9a-hexahydro-1H-cyclopenta[b]quinolin-9-yl)-N4-(methylsulfonyl)succinamide] returned a Ki of 201 to 7500 nM.

As to `O=C(O)CCC(=O)N(C1CC1)[C@H]1c2cc(F)ccc2N(C(=O)c2ccc(OC(F)(F)F)cc2)[C@H]2CCC[C@H]21` [compound 17, 4-(cyclopropyl((3aS,9R,9aR)-7-fluoro-4-(4-(trifluoromethoxy)benzoyl)-2,3,3a,4,9,9a-hexahydro-1H-cyclopenta[b]quinolin-9-yl)amino)-4-oxobutanoic acid], the Ki fell in the range of 5.1 to 20 nM.

In turn, `C[C@H](OC(=O)N(C1CC1)C1c2ccccc2N(C(=O)OCc2ccccc2)C2CCCC21)C(=O)O` (stereo partly drawn) [compound 32, 4-(Phenylmethyl)cis,cis-[[(1(S)-carboxyethoxy)carbonyl]cyclopropylamino]-1,2,3,3a,9,9a-hexahydro-4H-cyclopenta[b]quinoline-4-carboxylate] had a Ki of 20.1 to 200 nM.

Molecule `O=C(O)[C@@H]1CCN1C(=O)N(C1CC1)C1c2ccccc2N(C(=O)OCc2ccccc2)C2CCCC21` (stereo partly drawn) [compound 33, 4-(Phenylmethyl)cis,cis-[[(2(S)-carboxy-1-azetidinyl)carbonyl]cyclopropylamino]-1,2,3,3a,9,9a-hexahydro-4H-cyclopenta[b]quinoline-4-carboxylate] showed a Ki of 201 to 7500 nM.

`O=C(O)C1CN(C(=O)N(C2CC2)[C@H]2c3cc(F)ccc3N(C(=O)OCc3ccccc3)[C@H]3CCC[C@H]32)C1` [compound 34, 4-(phenylmethyl)(3aS,9R,9aR)-[[(3-carboxy-1-azetidinyl)carbonyl]cyclopropylamino]-7-fluoro-1,2,3,3a,9,9a-hexahydro-4H-cyclopenta[b]quinoline-4-carboxylate] displayed a Ki of 201 to 7500 nM.

Source of the values: patent publication US8592383B2, “Cycloalkyl-fused tetrahydroquinolines as CRTH2 receptor modulators” (Merck Sharp & Dohme Corp., priority 2011, dated 2013).
